Data as given in PubChem BioAssay (NCATS).
Inconclusive results, whose numbers are uncertain, are shown with a selection of clear calls. Potencies of inconclusive entries are left out as doubtful fits. Active and inactive are the calls of the source. The call rests on the fitted dose curve; in most records, active means well fitted cell-killing curve with a large enough effect; inconclusive means small, poorly fitted or top-dose-only effect; inactive means no such curve, though single readings can be large or run the other way.

Assay: qHTS of pediatric cancer cell lines to identify multiple opportunities for drug repurposing: Primary screen for NB-EBc1 cells (AID 1347095)
Conditions: NB-EBc1 neuroblastoma viability, CellTiter-Glo luminescence, 48 h; series mostly up to 46 µM
How it was run: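 500-1,000 cells/well; 5 h pre-incubation 37 °C/5% CO2; compound pinned; 48 h; CellTiter-Glo, 15 min RT; luminescence. MIPE 11-pt from 0.78 nM, NPC 8-pt from 0.59 nM final. Bortezomib 2.3 µM final as positive control.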
Potency means the concentration at half of the fitted maximal effect; tags describe the fitted curve by direction and shape.

Q: Which Potency does the source give for `COc1ccccc1N1CCNCC1` here?
A: inactive

Q: For `CC(C)Oc1cccc(NC(=O)c2ccccc2C(F)(F)F)c1`, which Potency is on record?
A: inconclusive [cytotoxic, partial curve, poor fit]

Q: With `CC[N+]1(C)CCCC(OC(=O)C(O)(c2ccccc2)c2ccccc2)C1` (configuration not stated) as the compound, how does the Potency read?
A: inactive

Q: Which Potency does the source give for `C#CC1(O)CCC2C3CCC4=CC(=O)CCC4(C)C3CCC21C` (configuration not stated) here?
A: inconclusive [cytotoxic, partial curve, poor fit]

Q: For `C[C@H](N)[C@H](O)c1ccc(O)c(O)c1`, which Potency is on record?
A: inconclusive [cytotoxic, single point]

Q: Which Potency does the source give for `O=C(O)C(=O)c1cn(Cc2ccccc2)c2ccc(-c3ccc(OC(F)(F)F)cc3)cc12` here?
A: inconclusive [cytotoxic, single point]

Q: With `N#Cc1nn(-c2c(Cl)cc(C(F)(F)F)cc2Cl)c(N)c1S(=O)C(F)(F)F` (configuration not stated) as the compound, how does the Potency read?
A: inconclusive [cytotoxic, single point]

Q: For `C[C@]12C=CC(=O)C=C1CC[C@@H]1[C@@H]2CC[C@@]2(C)[C@H]1CC[C@]2(C)O`, which Potency is on record?
A: inconclusive [cytotoxic, single point]

Q: With `CCc1c(C(=O)C(N)=O)c2c(OCC(=O)O)cccc2n1Cc1ccccc1` as the compound, how does the Potency read?
A: inactive

Q: With `CC(C)CC(N(C)C)C1(c2ccc(Cl)cc2)CCC1` (configuration not stated) as the compound, how does the Potency read?
A: inactive

Q: For `C1=C2CCCN[C@H]2[C@@H]2C[C@H]1[C@@H]1CCCCN1C2`, which Potency is on record?
A: inactive

Q: For `CC(CCc1ccccc1)NC(C)C(O)c1ccc(O)cc1` (configuration not stated), which Potency is on record?
A: inactive

Q: For `c1ccc(CN2CCNCC2)cc1`, which Potency is on record?
A: inactive

Q: For `CC1=C2C[C@@H]3[C@@H](CC=C4C[C@@H](O)CC[C@@]43C)[C@@H]2CC[C@]12O[C@H]1C[C@H](C)CN[C@H]1[C@H]2C`, which Potency is on record?
A: inconclusive [cytotoxic, partial curve]

Q: Which Potency does the source give for `NCC(O)c1ccc(O)cc1` (configuration not stated) here?
A: inactive

Q: Which Potency does the source give for `NC(=O)c1cc([N+](=O)[O-])cc([N+](=O)[O-])c1` here?
A: inactive

Q: Which Potency does the source give for `CC(O)=C(C#N)C(=O)Nc1cc(Br)ccc1Br` here?
A: inconclusive [cytotoxic, partial curve]

Q: For `CCN(CC)C(=O)c1ccc(C2=CC3(CCNCC3)Oc3cccc(O)c32)cc1`, which Potency is on record?
A: inactive

Q: For `c1ccc(CCCN2CCN(CCOC(c3ccccc3)c3ccccc3)CC2)cc1`, which Potency is on record?
A: inconclusive [cytotoxic, partial curve]

Q: With `CC(C)=CC1C(C(=O)OCN2C(=O)C3=C(CCCC3)C2=O)C1(C)C` (configuration not stated) as the compound, how does the Potency read?
A: inconclusive [cytotoxic, single point]

Q: With `O=C(O)CNC(=O)c1c(O)c2ccccc2n(Cc2ccccc2)c1=O` as the compound, how does the Potency read?
A: inconclusive [cytotoxic, single point]

Q: With `CC(C)N(CCNC(=O)CN1CCCC1=O)C(C)C` as the compound, how does the Potency read?
A: inactive

Q: For `COc1ccc(C(=O)c2c(C)n(CCN3CCOCC3)c3ccccc23)cc1`, which Potency is on record?
A: inconclusive [cytotoxic, single point]

Q: With `C[C@]12CCC(=O)C=C1CC[C@@H]1[C@@H]2CC[C@@]2(C)[C@H]1CC[C@]2(C)O` as the compound, how does the Potency read?
A: inconclusive [cytotoxic, single point]

Q: With `CC[C@]1(O)CC[C@H]2[C@@H]3CCC4=CCCC[C@@H]4[C@H]3CC[C@@]21C` as the compound, how does the Potency read?
A: inconclusive [cytotoxic, full curve, poor fit]

Q: For `CCOP(=S)(OCC)Oc1ccc2c(C)c(Cl)c(=O)oc2c1`, which Potency is on record?
A: inconclusive [cytotoxic, partial curve, poor fit]

Q: Which Potency does the source give for `CC[n+]1c(-c2ccccc2)c2cc(N)ccc2c2ccc(N)cc21` here?
A: inconclusive [cytotoxic, single point]

Q: Which Potency does the source give for `O=C1c2ccccc2C(=O)C1C(=O)C(c1ccccc1)c1ccccc1` here?
A: inconclusive [cytotoxic, single point]

Q: Which Potency does the source give for `O=P1(NCCCl)OCCCN1CCCl` (configuration not stated) here?
A: inconclusive [cytotoxic, partial curve]

Q: With `C[N+]1(C)[C@@H]2CC[C@H]1CC(OC(=O)C(CO)c1ccccc1)C2` (some centres not stated) as the compound, how does the Potency read?
A: inactive

Q: For `CC(=O)OCC1=C(C(=O)O)N2C(=O)[C@@H](N)[C@@H]2SC1`, which Potency is on record?
A: inconclusive [cytotoxic, partial curve]

Q: With `Nc1ccc(Cl)cc1C(=O)c1ccccc1F` as the compound, how does the Potency read?
A: inconclusive [cytotoxic, single point]

Q: With `O=[N+]([O-])c1c(Cl)c(Cl)cc(Cl)c1Cl` as the compound, how does the Potency read?
A: inactive

Q: With `Nc1ccc(N)cc1` as the compound, how does the Potency read?
A: inconclusive [cytotoxic, single point]

Q: With `COc1ccc2c(c1)[C@]13CCCCC1C(C2)N(C)CC3` (some centres not stated) as the compound, how does the Potency read?
A: inactive

Q: With `COc1cccc2c1[C@]13CCN(CC4CC4)[C@H](C2)[C@]1(OC)CCC(=O)C3` as the compound, how does the Potency read?
A: inactive

Q: Which Potency does the source give for `COc1cccc(C(=O)CCN[C@@H](C)[C@H](O)c2ccccc2)c1` here?
A: inconclusive [cytotoxic, single point]
